Measurements published in PubChem BioAssay AID1963862 (Molecular Pharmacology Branch, DTP, NCI, 2024).
The source holds more than one record for some entries. They are shown here; other results are not. There may be further records. Values given together are repeats (runs, samples, wells, individuals or studies). Brackets with × give the number of equal values in this list. A date in brackets names the month of the test.

Tested on: KRAS patient-derived spheroids with HUVEC/MSC, viability
Experiment: Anticancer human tumor 941728-121-R-J1-PDC patient-derived lung adenocarcinoma cell line growth inhibition [KRAS2]
Conditions: for IC50: compound alone; for viability, T/C: stronger effect = lower value
Excerpt: Multicellular complex tumor spheroid response to RAS pathway inhibitors in combination with a targeted agents in patient-derived cell lines with oncogenic KRAS variants from multiple cancer types
A high-throughput screen of multi-cell type tumor spheroids was designed to identify active combinations of targeted small molecules and KRAS pathway inhibitors. Complex spheroids include a stromal component modeled by human endothelial cells (HUVEC) and fibroblasts modeled by human mesenchymal stem cells (MSCs). The concentration ranges selected for each drug and investigational agent were based upon clinically achievable concentrations if the clinical Cmax of the agent was known.
Compounds. The drugs and investigational agents: BI-3406 (NSC825286), BAY-293 (NSC824723), batoprotafib (TNO155; NSC825523), sotorasib (AMG 510; NSC818433), MRTX1257 (NSC819558), elimusertib (BAY 1895344; NSC800525), molibresib (GSK525762; NSC774829), temuterkib (LY3214996; NSC803410), venetoclax (NSC766270), alisertib (NSC759677), olaparib (NSC753686), talazoparib (NSC767125), erdafitinib (NSC781556), ipatasertib (NSC767898), cabozantinib (NSC761068), nintedanib (NSC756659), abemaciclib (NSC768073), docetaxel (NSC628503), trametinib (NSC758246), and sapanisertib (NSC764658) were obtained from the National Cancer Institute (NCI) Developmental Therapeutics Program Chemical Repository. The FDA-approved anticancer drug set is available from the Developmental Therapeutics Program. […] The stock solutions were prepared in dimethyl sulfoxide (DMSO, Sigma-Aldrich, St. Louis, MO, cat. D2650) at 800-fold the tested concentration and stored at -70 degrees C prior to their use. All drugs and investigational agents were tested over a range starting from a high concentration at or near the clinical Cmax and decreasing in half-log increments. If the clinical Cmax for an agent had not been determined, the highest concentration tested was 10 microM.
Cell Culture. All cells were maintained in an incubator at 37 degrees C and 5% CO2 with 95% humidity. The PDC lines were cultured according to standard operating procedures established by the NCI PDMR (https://pdmr.cancer.gov/sops/default.htm). Briefly, all PDCs were thawed and cultured in Matrigel-coated flasks prepared with a working solution of 1X Ham's F-12 nutrient mix, without supplementation (Invitrogen, Waltham, MA, cat. 11765054), 100 U/mL penicillin-streptomycin (Invitrogen, cat. 15140122), and 2.5% Matrigel (Corning Inc., Corning, NY, cat. 354248) for the first three passages. All PDCs were cultured in complete DMEM/F-12 media containing advanced DMEM/F-12 (Invitrogen, cat. 12634028), 4.9% defined fetal bovine serum, heat inactivated (HyClone Laboratories Inc., Logan, UT, cat. SH30070.03HI), 389 ng/mL hydrocortisone (Sigma-Aldrich, cat. H4001), 9.7 ng/mL human EGF recombinant protein (Invitrogen, cat. PHG0313), 23.4 microg/mL adenine (Sigma-Aldrich, cat. A2786), 97.3 U/mL penicillin-streptomycin (Invitrogen, cat. 15140122), 1.9 mM L-glutamine (Invitrogen, cat. 25030081), and 9.7 microM Y-27632 dihydrochloride (Tocris Bioscience, Bristol, United Kingdom, cat. 1254). The PDCs were cultured in complete DMEM/F12 media without 9.7 microM Y-27632 dihydrochloride for at least two passages prior to the screen. The established cell line HOP-62 was cultured in RPMI 1640 medium, HEPES (Invitrogen, cat. 22400105) with 10% defined fetal bovine serum (HyClone Laboratories Inc., cat. SH30070.03) and 2 mM L-glutamine (Invitrogen, cat. 25030081). The pooled donor HUVEC were cultured in endothelial cell growth medium 2 (PromoCell, Heidelberg, Germany, cat. C-22011) and the hMSC were cultured in mesenchymal stem cell growth medium 2 (PromoCell, cat. C-28009). For all experiments, HUVEC and hMSC were used at passages </=5, while the malignant cell lines were used at passages </=15. […]
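Note: spheroids exposed to agents for seven days before readout.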

Row | Structure (SMILES) | IC50 | viability, T/C (compound alone 0.1 µM) | viability, T/C (compound alone 0.0316 µM) | viability, T/C (compound alone 0.316 µM) | viability, T/C (compound alone 1 µM) | viability, T/C (compound alone 3.16 µM) | IC50 (run of 07/12/2021) | IC50 (run of 07/26/2021) | viability, T/C (compound alone 10 µM)
1 | Cn1nccc1Nc1nccc(-c2cc3c(s2)C(C)(C)N(CCN2CCOCC2)C3=O)n1 | 240 nM, 244 nM, > 10 µM | 60.9, 67.3, 86.3, 92, 84% |  |  |  |  |  |  | 
2 | COc1cc(Nc2ncc3c(n2)-c2ccc(Cl)cc2C(c2c(F)cccc2OC)=NC3)ccc1C(=O)O | < 31.6 nM, 6.08 µM, > 10 µM | 42.4, 62, 68.6, 75.5, 72.5% | 50.9, 87, 70.4, 96.9, 109% | 56.1, 64.1, 63, 71, 85.9% |  |  |  |  | 
3 | CC(=O)Nc1cccc(-n2c(=O)n(C3CC3)c(=O)c3c(Nc4ccc(I)cc4F)n(C)c(=O)c(C)c32)c1 | 5.97, 2.02, 1.71, 2.53, 0.971 nM |  |  |  |  |  |  |  | 
4 | CNCc1ccccc1-c1csc(C(C)Nc2nc(C)nc3cc(OC)c(OC)cc23)c1 (configuration not stated) |  | 51.7 (2×), 56.1, 57.1, 59.3, 61.8, 59.9, 50.5, 52.7, 63.3, 61.5, 67, 63.9, 69.5, 77.8, 72.4, 76.2% |  | 40.1, 31.2, 43.5, 50.5, 51.9, 44.3, 28.9, 38.3, 35.4, 38.1, 44.8, 49.2, 40.3, 60.5, 61.4, 60.2, 56.3% | 44.3, 49.6, 39.8, 43.9, 34.3, 31.8, 18, 23, 27, 20.3, 26.9, 25.6, 32, 53.1, 36.7, 39.9, 48.1% | 37, 25.8, 0.85, 0.56, 0.45, 0.35, 0.11, 0.42, 0.2, 0.24, 0.18, 1.99, 1.52, 7.57, 1.71, 5.19, 10.3% | 426 nM and < 100 nM, 326 nM, 424 nM, 285 nM [2021-07] | 325 nM, 226 nM, 1.07 µM, 542 nM, 578 nM, 643 nM | 
5 | CC(C)NCC(C(=O)N1CCN(c2ncnc3c2C(C)CC3O)CC1)c1ccc(Cl)cc1 (configuration not stated) |  |  |  |  |  | 32.6, 43.4, 42.3, 17.5, 36.1% |  |  | 
6 | Cn1ncnc1[C@H]1c2n[nH]c(=O)c3cc(F)cc(c23)N[C@@H]1c1ccc(F)cc1 |  | 80.4, 78.8, 69.2, 96.8, 85.1% | 72.2, 89.8, 78.2, 98.8, 81.5% |  |  |  |  |  | 
7 | CC(=O)OC12COC1CC(O)C1(C)C(=O)C(O)C3=C(C)C(OC(=O)C(O)C(NC(=O)OC(C)(C)C)c4ccccc4)CC(O)(C(OC(=O)c4ccccc4)C21)C3(C)C (configuration not stated) | < 10 nM and > 3.16 µM |  |  |  |  |  |  |  | 
8 | COc1cc(OC)cc(N(CCNC(C)C)c2ccc3ncc(-c4cnn(C)c4)nc3c2)c1 | 4.59, 6.16, 9.32, 1.27, 8.18 µM |  | 93.8, 91.3, 121, 115, 107% |  | 76.5, 88.2, 107, 41.4, 93.4% | 65.9, 79.1, 92.6, 40.1, 69.8% |  |  | 23.1, 29.5, 46.5, 2.34, 45.3%
9 | O=C(c1cc(Cc2n[nH]c(=O)c3ccccc23)ccc1F)N1CCN(C(=O)C2CC2)CC1 |  |  | 85.8, 82.2, 97.8, 96, 113% |  | 89.3, 75.8, 88.5, 101, 98.2% | 81.1, 77.2, 94.3, 103, 96.9% |  |  | 
10 | COc1cc2nc(C)nc(NC(C)c3cc(N)cc(C(F)(F)F)c3)c2cc1OC1CCOC1 (configuration not stated) |  | 59, 63.1, 58.9, 109, 55.5, 61.1, 38.2, 39.5, 39.8, 53.6, 56.1, 54.5, 46, 51.3, 60.2, 67.8, 65.9% |  | 55.6, 41.4, 49.9, 46.1, 57.1, 46.9, 35.4, 44.2, 33.7, 54.5, 46.7, 43.6, 52.7, 70.1, 73, 60.7, 55.2% | 85.5, 58, 72.3, 38.7, 48.8, 43.6, 32.9, 34.9, 39.6, 40.7, 38.3, 29.7, 39.5, 63.2, 58.6, 50.7, 54.6% | 43.8, 20.7, 40.8 (2×), 51.3, 38.7, 33.6, 34.1, 33.4, 33.5, 34.2, 24.1, 37, 56.9, 36.2, 50.4, 49.3% | 6.36 µM, 1.15 µM, > 10 µM, 1.3 µM, 1.01 µM, 341 nM | 153 nM, 143 nM, 4.82 µM, 1.62 µM, 2.12 µM, 2.09 µM | 47.5, 17.7, 67.1, 25.8, 15.4, 11.6 (2×), 11.3, 25, 13.4, 19, 19.2, 23.4, 36.5, 15.3, 44.8, 30.6%
